Source: the supplement of paper PMC4967469
By IC50 is meant the dose at which the fit gives 50% viability; a limit (>, <) means that the fit lies beyond the doses tested. AUC, from the same fit, is the share of area under the viability curve across the 256-fold dose range; the more sensitive the line, the further below 1. For part of these data: An inferred top dose was calculated from the reported fits. For part of these data: Drugs with an entry number were screened twice under separate entries, and the two screens often disagree.

How the values were obtained:
Test in all cases: Viability of human cancer cell lines after 72 h of drug (GDSC screen)
[1] = compound: COc1nc(C)cnc1NS(=O)(=O)c1cccnc1-c1ccc(-c2nnco2)cc1 [Zibotentan]; conditions: top dose 20 µM; top dose inferred
Method: (§1)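 Human cancer cell lines in 384-well plates, medium with 10% serum, drug for 72 h over a 256-fold dose range (nine 2-fold or five 4-fold steps up to the top dose). Adherent lines were fixed and stained with the nucleic acid dye Syto60, suspension lines read with resazurin; signal relative to control wells, capped at 0 and 100%. One two-parameter sigmoid per drug and line, fitted in a mixed model over all curves with the slope shared within a line.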

[2] = compound: Cc1cnc(-c2cnc(NCCNc3ccc(C#N)cn3)nc2-c2ccc(Cl)cc2Cl)[nH]1 [CHIR-99021]
Method: as §1

[3] = compound: COc1cc2ncnc(-n3nc(-c4ccccn4)nc3N)c2cc1OC [CP466722]; conditions: top dose 16 µM; top dose inferred
Method: as §1

[4] = compound: C[C@]1(c2nc3c(C(N)=O)cccc3[nH]2)CCCN1 [ABT-888]; conditions: top dose 5 µM; top dose inferred
Method: as §1

[5] = compound: O=c1cc(-c2cccc3c2Sc2ccccc2S3)oc(N2CCOCC2)c1 [KU-55933]; conditions: top dose 10 µM
Method: as §1

[6] = compound: Cc1ccc(F)c(NC(=O)Nc2ccc(-c3cccc4[nH]nc(N)c34)cc2)c1 [ABT-869]; conditions: top dose 1.024 µM; top dose inferred
Method: as §1

[7] = compound: C=CC(=O)Nc1cc(-n2c(=O)ccc3cnc4ccc(-c5cn[nH]c5)cc4c32)ccc1C [QL-X-138]; conditions: top dose 10.24 µM; top dose inferred
Method: as §1

[8] = compound: COc1cc(N2CCC(O)CC2)ccc1Nc1cc(Nc2ccccc2S(=O)(=O)C(C)C)c2cc[nH]c2n1 [MPS-1-IN-1]; conditions: top dose 20 µM; top dose inferred
Method: as §1

[9] = compound: C/C=C(/C)C(=O)O[C@H]1C(C)=C2[C@H]([C@@H]1OC(=O)CCCCCCC)[C@@](C)(OC(C)=O)C[C@H](OC(=O)CCC)[C@@]1(O)[C@H]2OC(=O)[C@@]1(C)O [Thapsigargin]; conditions: top dose 0.512 µM; top dose inferred
Method: as §1

[10] = compound: COc1cc(O)c2c(c1)/C=C/C[C@H](O)[C@H](O)C(=O)/C=C\C[C@H](C)OC2=O [(5Z)-7-Oxozeaenol]; conditions: top dose 10 µM; top dose inferred
Method: as §1

[11] = compound: CCn1c(-c2nonc2N)nc2cnc(Oc3cccc(NC(=O)c4ccc(OCCN5CCOCC5)cc4)c3)cc21 [GSK269962A]; conditions: top dose 5 µM; screen: GDSC drug entry 1192; top dose inferred
Method: as §1

[12] = top dose 2.56 µM, screen: GDSC drug entry 154
[13] = top dose 10 µM, screen: GDSC drug entry 1241, top dose inferred

Cell Line	AUC [1]	IC50 [1]	AUC [2, 12]	IC50 [2, 12]	AUC [3]	IC50 [3]	AUC [4]	IC50 [4]	AUC [5]	IC50 [5]	AUC [6]	IC50 [6]	AUC [7]	IC50 [7]	AUC [8]	IC50 [8]	AUC [9]	IC50 [9]	AUC [2, 13]	IC50 [2, 13]	AUC [10]	IC50 [10]	AUC [11]	IC50 [11]
201T (lung adenocarcinoma, adherent)	0.975	> 20 µM	0.978	> 2.56 µM	0.802	10.4 µM	0.98	> 5 µM	0.952	> 10 µM	0.98	> 1.02 µM	0.86	> 10.2 µM	0.896	> 20 µM	0.223	0.00391 µM	–	–	–	–	–	–
A427 (non-small cell lung carcinoma, adherent)	0.986	> 20 µM	0.986	> 2.56 µM	0.825	9.74 µM	0.969	> 5 µM	0.975	> 10 µM	0.981	> 1.02 µM	0.921	> 10.2 µM	–	–	0.248	0.00597 µM	0.908	> 10 µM	0.738	3.02 µM	0.866	4.55 µM
A2780 (ovary, semi-adherent)	0.982	> 20 µM	0.983	> 2.56 µM	0.711	4.03 µM	0.965	> 5 µM	0.984	> 10 µM	0.979	> 1.02 µM	–	–	0.749	6.68 µM	0.217	0.00456 µM	0.833	6.77 µM	0.647	1.62 µM	0.8	2.52 µM
AU565 (breast, adherent)	0.978	> 20 µM	0.981	> 2.56 µM	0.835	12.2 µM	0.984	> 5 µM	0.933	> 10 µM	0.976	> 1.02 µM	0.725	3.03 µM	0.976	> 20 µM	0.309	0.00872 µM	–	–	–	–	0.923	> 5 µM
COR-L23 (large cell lung carcinoma, adherent)	0.987	> 20 µM	–	–	0.757	5.37 µM	0.988	> 5 µM	0.987	> 10 µM	0.987	> 1.02 µM	0.615	1.32 µM	0.876	18.9 µM	0.284	0.008 µM	–	–	0.802	4.75 µM	0.94	> 5 µM
H290 (mesothelioma, adherent)	–	–	0.988	> 2.56 µM	0.699	3.42 µM	0.989	> 5 µM	0.986	> 10 µM	0.989	> 1.02 µM	0.868	8.05 µM	–	–	0.426	0.0205 µM	0.983	> 10 µM	0.59	1.08 µM	0.906	> 5 µM
HT-1080 (fibrosarcoma, adherent)	0.989	> 20 µM	0.985	> 2.56 µM	0.905	> 16 µM	0.985	> 5 µM	0.969	> 10 µM	–	–	0.808	4.64 µM	0.987	> 20 µM	0.137	0.00278 µM	0.872	7.85 µM	0.584	1.03 µM	0.585	0.52 µM
IGR-37 (melanoma, adherent)	0.986	> 20 µM	0.988	> 2.56 µM	0.986	> 16 µM	0.988	> 5 µM	0.935	> 10 µM	–	–	0.989	> 10.2 µM	0.897	> 20 µM	0.23	0.00574 µM	0.988	> 10 µM	0.032	< 0.0391 µM	0.892	> 5 µM
KYSE-140 (oesophagus, adherent)	0.982	> 20 µM	0.98	> 2.56 µM	0.662	3.01 µM	0.984	> 5 µM	0.926	> 10 µM	0.982	> 1.02 µM	0.671	2.05 µM	0.886	> 20 µM	0.205	0.00373 µM	–	–	–	–	0.982	> 5 µM
LCLC-97TM1 (large cell lung carcinoma, adherent)	0.98	> 20 µM	–	–	0.566	1.54 µM	0.972	> 5 µM	0.93	> 10 µM	0.964	> 1.02 µM	0.448	0.454 µM	0.776	8.72 µM	0.166	0.00271 µM	–	–	0.695	2.33 µM	0.972	> 5 µM
LK-2 (lung squamous cell carcinoma, adherent)	0.989	> 20 µM	–	–	0.809	7.77 µM	0.989	> 5 µM	0.975	> 10 µM	0.985	> 1.02 µM	0.848	6.96 µM	0.893	> 20 µM	0.258	0.00683 µM	–	–	0.845	6.63 µM	0.683	0.983 µM
MIA-PaCa-2 (pancreas, adherent)	0.981	> 20 µM	0.816	1.6 µM	0.981	> 16 µM	0.957	> 5 µM	0.883	> 10 µM	0.981	> 1.02 µM	0.982	> 10.2 µM	0.985	> 20 µM	0.25	0.00561 µM	–	–	–	–	–	–
NCI-H358 (lung adenocarcinoma, adherent)	0.98	> 20 µM	–	–	0.727	4.81 µM	0.983	> 5 µM	0.925	> 10 µM	0.971	> 1.02 µM	0.562	0.966 µM	0.778	9.01 µM	0.2	0.00366 µM	–	–	0.76	3.9 µM	0.916	> 5 µM
NCI-H647 (non-small cell lung carcinoma, adherent)	0.982	> 20 µM	0.981	> 2.56 µM	0.66	2.84 µM	0.973	> 5 µM	0.967	> 10 µM	0.985	> 1.02 µM	0.55	0.881 µM	0.925	> 20 µM	0.232	0.00511 µM	–	–	–	–	–	–
OCUM-1 (stomach, adherent)	0.986	> 20 µM	0.986	> 2.56 µM	0.962	> 16 µM	0.987	> 5 µM	0.984	> 10 µM	0.984	> 1.02 µM	0.941	> 10.2 µM	0.949	> 20 µM	0.316	0.00918 µM	–	–	–	–	–	–
PC-14 (lung adenocarcinoma, adherent)	0.987	> 20 µM	–	–	0.748	4.68 µM	0.988	> 5 µM	0.973	> 10 µM	0.982	> 1.02 µM	0.763	3.33 µM	0.891	18.9 µM	0.298	0.00933 µM	–	–	0.828	5.28 µM	0.958	> 5 µM
RCC-ER (kidney, adherent)	0.985	> 20 µM	–	–	0.832	12 µM	0.986	> 5 µM	0.922	> 10 µM	0.98	> 1.02 µM	0.879	> 10.2 µM	0.981	> 20 µM	–	–	0.704	2.53 µM	0.791	5.08 µM	0.974	> 5 µM
RCC-JF (kidney, adherent)	0.983	> 20 µM	–	–	0.714	4.38 µM	0.962	> 5 µM	0.923	> 10 µM	0.977	> 1.02 µM	0.459	0.488 µM	0.895	> 20 µM	–	–	0.893	> 10 µM	0.586	1.11 µM	0.363	0.124 µM
RCC-MF (kidney, adherent)	0.973	> 20 µM	–	–	0.711	4.78 µM	0.965	> 5 µM	0.92	> 10 µM	0.969	> 1.02 µM	0.381	0.273 µM	0.903	> 20 µM	–	–	0.886	> 10 µM	0.76	4.51 µM	0.827	4.35 µM
RPMI-7951 (melanoma, adherent)	0.987	> 20 µM	0.898	> 2.56 µM	0.707	3.76 µM	0.986	> 5 µM	0.987	> 10 µM	0.964	> 1.02 µM	0.528	0.76 µM	0.847	14.1 µM	0.223	0.00513 µM	–	–	–	–	0.69	1.05 µM
SCC90 (head and neck, adherent)	–	–	0.979	> 2.56 µM	0.797	11.5 µM	0.981	> 5 µM	0.981	> 10 µM	–	–	–	–	–	–	0.429	0.0189 µM	0.971	> 10 µM	0.808	8.13 µM	0.929	> 5 µM
SK-GT-4 (oesophagus, adherent)	0.98	> 20 µM	–	–	0.851	> 16 µM	0.964	> 5 µM	0.957	> 10 µM	0.974	> 1.02 µM	0.678	2.28 µM	0.856	> 20 µM	–	–	0.914	> 10 µM	0.768	4.64 µM	0.941	> 5 µM
SK-MEL-5 (melanoma, adherent)	0.983	> 20 µM	–	–	0.912	> 16 µM	0.936	> 5 µM	0.921	> 10 µM	0.979	> 1.02 µM	0.795	5.98 µM	0.983	> 20 µM	–	–	0.98	> 10 µM	0.337	0.199 µM	0.959	> 5 µM
SW48 (large intestine, adherent)	0.987	> 20 µM	0.954	> 2.56 µM	0.873	15.4 µM	0.978	> 5 µM	0.953	> 10 µM	0.778	0.414 µM	0.906	> 10.2 µM	–	–	0.161	0.00296 µM	0.937	> 10 µM	0.595	1.14 µM	0.65	0.81 µM
YH-13 (glioma, adherent)	0.98	> 20 µM	–	–	0.819	9.73 µM	0.983	> 5 µM	0.913	> 10 µM	0.959	> 1.02 µM	0.732	3.07 µM	0.986	> 20 µM	–	–	0.847	8.04 µM	0.439	0.422 µM	0.665	0.928 µM
